Results from the supplement of paper PMC8728848.
The list shows a part of the results.

Columns and labels:
Assay in all cases: glycan array binding signal (z-score within array); higher = stronger binding
Conditions in all cases: glycan notation: IUPAC condensed, linker removed
GlcNAc(b1-3)GalNAc = target: GlcNAc(b1-3)GalNAc
Summary of the method: (§1)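 Glycan array data were curated from 3228 arrays in the Consortium for Functional Glycomics database and kept only where the protein sequence was available. Glycan names were converted to IUPAC-condensed notation, and columns mapping to the same glycan were averaged. The binding signal is a within-array Z-score, averaged across arrays of the same protein sequence at different concentrations or buffers and across linkers. Negative Z-scores can be read as non-binding.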

GlcNAc(b1-3)Man = target: GlcNAc(b1-3)Man
Summary of the method: as §1

[1] = target: GlcNAc(b1-3)[GlcNAc(b1-4)][GlcNAc(b1-6)]GlcNAc
Summary of the method: as §1

[2] = target: GlcNAc(b1-3)[GlcNAc(b1-6)]Gal(b1-4)GlcNAc
Summary of the method: as §1

[3] = target: GlcNAc(b1-3)[GlcNAc(b1-6)]GalNAc
Summary of the method: as §1

[4] = target: GlcNAc(b1-4)Gal(b1-4)GlcNAc
Summary of the method: as §1

GlcNAc(b1-4)GlcNAc = target: GlcNAc(b1-4)GlcNAc
Summary of the method: as §1

[5] = target: GlcNAc(b1-4)GlcNAc(b1-4)GlcNAc
Summary of the method: as §1

[6] = target: GlcNAc(b1-4)GlcNAc(b1-4)GlcNAc(b1-4)GlcNAc(b1-4)GlcNAc
Summary of the method: as §1

[7] = target: GlcNAc(b1-4)GlcNAc(b1-4)GlcNAc(b1-4)GlcNAc(b1-4)GlcNAc(b1-4)GlcNAc
Summary of the method: as §1

[8] = target: GlcNAc(b1-4)[GlcNAc(b1-6)]GalNAc
Summary of the method: as §1

[9] = target: GlcNAc(b1-6)Gal(b1-4)GlcNAc
Summary of the method: as §1

GlcNAc(b1-6)GalNAc = target: GlcNAc(b1-6)GalNAc
Summary of the method: as §1

[10] = target: GlcNAc6S(b1-3)Gal(b1-4)GlcNAc
Summary of the method: as §1

Kdn(a2-3)Gal(b1-3)GalNAc = target: Kdn(a2-3)Gal(b1-3)GalNAc
Summary of the method: as §1

Kdn(a2-3)Gal(b1-3)GlcNAc = target: Kdn(a2-3)Gal(b1-3)GlcNAc
Summary of the method: as §1

Kdn(a2-3)Gal(b1-4)Glc = target: Kdn(a2-3)Gal(b1-4)Glc
Summary of the method: as §1

Kdn(a2-3)Gal(b1-4)GlcNAc = target: Kdn(a2-3)Gal(b1-4)GlcNAc
Summary of the method: as §1

[11] = target: Kdn(a2-3)Gal(b1-4)[Fuc(a1-3)]GlcNAc
Summary of the method: as §1

Kdn(a2-6)Gal(b1-4)GlcNAc = target: Kdn(a2-6)Gal(b1-4)GlcNAc
Summary of the method: as §1

[12] = target: Man(a1-2)Man(a1-2)Man(a1-3)Man
Summary of the method: as §1

[13] = target: Man(a1-2)Man(a1-2)Man(a1-6)[Man(a1-3)]Man
Summary of the method: as §1

Man(a1-2)Man(a1-3)Man = target: Man(a1-2)Man(a1-3)Man
Summary of the method: as §1

[14] = target: Man(a1-2)Man(a1-3)[Man(a1-2)Man(a1-6)]Man
Summary of the method: as §1

[15] = target: Man(a1-2)Man(a1-3)[Man(a1-2)Man(a1-6)]Man(a1-6)[Man(a1-2)Man(a1-2)Man(a1-3)]Man
Summary of the method: as §1

[16] = target: Man(a1-2)Man(a1-3)[Man(a1-2)Man(a1-6)]Man(a1-6)[Man(a1-2)Man(a1-2)Man(a1-3)]Man(b1-4)GlcNAc(b1-4)GlcNAc
Summary of the method: as §1

[17] = target: Man(a1-2)Man(a1-3)[Man(a1-6)]Man(a1-6)[Man(a1-2)Man(a1-3)]Man(b1-4)GlcNAc(b1-4)GlcNAc
Summary of the method: as §1

[18] = target: Man(a1-2)Man(a1-6)[Man(a1-3)]Man(a1-6)[Man(a1-2)Man(a1-2)Man(a1-3)]Man
Summary of the method: as §1

[19] = target: Man(a1-2)Man(a1-6)[Man(a1-3)]Man(a1-6)[Man(a1-2)Man(a1-2)Man(a1-3)]Man(b1-4)GlcNAc(b1-4)GlcNAc
Summary of the method: as §1

Man(a1-3)[Man(a1-6)]Man = target: Man(a1-3)[Man(a1-6)]Man
Summary of the method: as §1

[20] = target: Man(a1-3)[Man(a1-6)]Man(a1-6)[Man(a1-2)Man(a1-3)]Man(b1-4)GlcNAc(b1-4)GlcNAc
Summary of the method: as §1

[21] = target: Man(a1-3)[Man(a1-6)]Man(a1-6)[Man(a1-3)]Man
Summary of the method: as §1

[22] = target: Man(a1-3)[Man(a1-6)]Man(a1-6)[Man(a1-3)]Man(b1-4)GlcNAc(b1-4)GlcNAc
Summary of the method: as §1

[23] = target: Man(a1-3)[Man(a1-6)]Man(b1-4)GlcNAc(b1-4)GlcNAc
Summary of the method: as §1

[24] = target: Man(a1-3)[Man(a1-6)]Man(b1-4)GlcNAc(b1-4)[Fuc(a1-6)]GlcNAc
Summary of the method: as §1

Man(a1-6)Man = target: Man(a1-6)Man
Summary of the method: as §1

Man(b1-4)GlcNAc = target: Man(b1-4)GlcNAc
Summary of the method: as §1

MurNAc(b1-4)GlcNAc = target: MurNAc(b1-4)GlcNAc
Summary of the method: as §1

B1: CC1G-11630 (Coprinopsis cinerea), A8P462 (protein)
chain: MTTEAKIKLKAVVYWELVFDYDNSSNTGEITQSYTVKISQTSTRSTFASEVSTTTIDTLTKNNQEVDVGASYGAISANVSASWEHSEEVNNMLEKTTQTSTEDTYTVETEETRSYTIGPGGMLSLFQKHFSGPGMHVAFDVFTTDLELAKERTEIDIDVDVEAIRFVREIRVVYTDIMSEAPGDHVREINGKNPDINYGFNGKFVWLVPEQTRKTAQALTNVEFVSQAESDDRYWDLAAGAGGSNRYLIPVYDTNNKDKIYELALWRSDSYITHDKVKAAGWSGTTGDINSGRGGTYLNLVWKTRHAY
GlcNAc(b1-3)GalNAc
  glycan array binding signal (z-score): -0.57
GlcNAc(b1-3)Man
  glycan array binding signal (z-score): 0.017
[1]
  glycan array binding signal (z-score): -0.287
[2]
  glycan array binding signal (z-score): -0.82
[3]
  glycan array binding signal (z-score): -0.389
[4]
  glycan array binding signal (z-score): -0.152
GlcNAc(b1-4)GlcNAc
  glycan array binding signal (z-score): -0.351
[5]
  glycan array binding signal (z-score): -0.313
[6]
  glycan array binding signal (z-score): 0.171
[7]
  glycan array binding signal (z-score): 0.74
[8]
  glycan array binding signal (z-score): -0.238
[9]
  glycan array binding signal (z-score): -0.115
GlcNAc(b1-6)GalNAc
  glycan array binding signal (z-score): -0.182
[10]
  glycan array binding signal (z-score): -0.193
Kdn(a2-3)Gal(b1-3)GalNAc
  glycan array binding signal (z-score): 0.243
Kdn(a2-3)Gal(b1-3)GlcNAc
  glycan array binding signal (z-score): -0.246
Kdn(a2-3)Gal(b1-4)Glc
  glycan array binding signal (z-score): -0.287
Kdn(a2-3)Gal(b1-4)GlcNAc
  glycan array binding signal (z-score): 0.379
[11]
  glycan array binding signal (z-score): -0.32
Kdn(a2-6)Gal(b1-4)GlcNAc
  glycan array binding signal (z-score): -0.403
[12]
  glycan array binding signal (z-score): -0.039
[13]
  glycan array binding signal (z-score): -0.059
Man(a1-2)Man(a1-3)Man
  glycan array binding signal (z-score): -0.436
[14]
  glycan array binding signal (z-score): -0.55
[15]
  glycan array binding signal (z-score): -0.354
[16]
  glycan array binding signal (z-score): 0.434
[17]
  glycan array binding signal (z-score): -0.164
[18]
  glycan array binding signal (z-score): -0.631
[19]
  glycan array binding signal (z-score): 0.152
Man(a1-3)[Man(a1-6)]Man
  glycan array binding signal (z-score): -0.172
[20]
  glycan array binding signal (z-score): 0.059
[21]
  glycan array binding signal (z-score): 0.492
[22]
  glycan array binding signal (z-score): -0.128
[23]
  glycan array binding signal (z-score): -0.422
[24]
  glycan array binding signal (z-score): 0.119
Man(a1-6)Man
  glycan array binding signal (z-score): 0.621
Man(b1-4)GlcNAc
  glycan array binding signal (z-score): -0.28
MurNAc(b1-4)GlcNAc
  glycan array binding signal (z-score): -0.226
